According to the supplement of paper PMC3334620:
In all, about 33,000 sequences were measured (“E-score (-0.5 to 0.5)”: median about -0.012, highest 2% from about 0.27 on). The list shows a part of the results.

What follows are sequences tested against T1, Vhr1 (UniProt P40522) (assay: PBM E-score (8-mer binding enrichment) (E-score (-0.5 to 0.5)); higher = stronger / more preferred TF binding; most listed sequences are background and not binding sites). Conditions: protein concentration: 200 nM; construct: GST-full length.
T1 sequence: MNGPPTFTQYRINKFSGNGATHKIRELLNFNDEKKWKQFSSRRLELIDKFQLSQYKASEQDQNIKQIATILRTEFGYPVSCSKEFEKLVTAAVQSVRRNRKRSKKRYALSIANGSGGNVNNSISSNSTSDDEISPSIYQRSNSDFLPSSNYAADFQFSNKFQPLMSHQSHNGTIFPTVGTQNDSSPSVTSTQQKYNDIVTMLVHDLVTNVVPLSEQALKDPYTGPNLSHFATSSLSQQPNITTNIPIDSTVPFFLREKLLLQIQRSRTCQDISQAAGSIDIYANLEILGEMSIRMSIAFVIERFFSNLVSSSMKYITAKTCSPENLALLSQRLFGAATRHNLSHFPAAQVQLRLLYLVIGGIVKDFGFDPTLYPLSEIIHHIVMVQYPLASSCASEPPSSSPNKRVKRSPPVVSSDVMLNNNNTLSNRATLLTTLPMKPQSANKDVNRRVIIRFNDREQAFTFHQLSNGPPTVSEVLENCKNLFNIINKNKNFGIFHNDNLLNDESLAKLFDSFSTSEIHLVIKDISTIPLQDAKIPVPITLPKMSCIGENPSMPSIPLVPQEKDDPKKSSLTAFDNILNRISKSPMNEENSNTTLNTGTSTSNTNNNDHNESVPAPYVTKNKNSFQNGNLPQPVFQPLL
Outline: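 Using PURExpress in vitro transcription/translation, GST-tagged yeast transcription factors were made in full-length or DNA-binding-domain form. These were applied at about 100-200 nM to double-stranded universal all-10-mer Agilent arrays, and bound protein was detected with fluorescent anti-GST. Scans were normalised with masliner before the Universal PBM Analysis Suite assigned E-scores to ungapped eight-base words pooled with their reverse complements.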

Sequence	PBM E-score
ATAGCATC	0.118
AATTTCGC	-0.0528
ATACGGCG	0.0899
ATATTTAG	-0.00388
CCCTTGCA	-0.174
GGAGACGA	0.108
CATACGCG	0.0571
GCCATGAA	0.0605
ATGCGGCC	-0.0127
GTCAGACA	0.0656
AATTGCTG	0.0603
ATACCAAC	0.23
ACACGGCT	-0.0581
GATCGTTA	0.0319
CCAGGCGA	0.0158
ATCAGCTG	0.0408
CTTCCGAA	-0.121
TCCTAAAA	-0.177
CACCAGAA	-0.0944
AGGACACA	0.204
GATGACGA	0.1
CGGCCACC	-0.00678
TAACCCCA	-0.131
GCATCGAC	-0.0201
CCAATGAC	0.285

Sequence	PBM E-score
AATTCTAT	-0.0391
CCTTTGCG	-0.0296
ACTGAATC	0.203
GAGTCGTA	0.405
GGCCCGTA	-0.291
GTTGTGTA	0.148
AGCCCTGA	-0.138
AGGAATCA	0.28
AGTACTGC	0.0238
ATGTGCTG	0.261
GTCTGTGA	0.235
CCAATCAC	0.179
TCTAACAA	-0.145
TCCCGGCA	-0.158
CTTGTATA	0.0979
CCACCCCC	-0.0519
CAAGAAAG	-0.0372
AGGAACCA	-0.0489
CCGTACGA	0.08
CCGGCCGC	-0.048
CCCACGTA	0.094
AGTCATGC	0.443
GAAAATCA	-0.0196
CAGGACAA	-0.0306
ACAGTGTC	0.108

Sequence	PBM E-score
TGTCAAAA	-0.0057
AATTGTAT	0.0681
ATTTTGGA	-0.134
CACTTCCC	-0.0861
AAAAAAGG	-0.151
CTCTAGGA	-0.319
CTGAAATC	-0.0316
CTTCACCA	-0.156
ACACTCAG	-0.0414
AGGAAATA	-0.04
ACGAATCT	-0.0246
GCCACAAA	0.0209
CAGACCGA	0.142
CTTGATCA	0.0768
CGATTCAA	-0.0806
ATCCGGGA	-0.189
GCTCTGAA	-0.163
ATAGTCAC	0.41
AGTGTCCG	-0.11
AGGATATC	0.0193
AAGGTCCC	-0.111
ACGGTAAC	0.0764
ACCAGGTC	-0.106
AGACGAAC	0.0617
CTCTACAC	0.00089

Sequence	PBM E-score
ATCACACC	0.288
CATGTGGA	0.123
GGGCTCAC	0.0948
AGGGTAAC	0.0439
CGATGAGA	-0.0475
ATTAAATA	0.00492
ATACAGGC	-0.0617
CCTGCAAC	-0.103
ATTATCAG	-0.0402
AGATGTAC	-0.107
ACCAAGGC	-0.238
CAAACCGG	0.00117
CGCAAACG	-0.143
CGGCGCTA	-0.0911
GCAGATGA	0.0933
CCTATGTA	-0.0448
AGCAGGTA	-0.0119
GTATAGAC	0.145
AATTACTA	-0.156
CATATTAC	0.225
CTCCTCCC	-0.164
AATTGCTA	-0.188
ACCCCCGT	-0.164
CCTTACGC	-0.0785
ATGAGTCG	0.462

Sequence	PBM E-score
GACAGCTA	-0.285
ATTCTGGG	-0.107
CCCGCGGA	-0.0501
AAACCAAG	-0.0778
CATACTCC	0.125
AGTTGCTG	0.0513
AAGATACG	-0.123
CGCATAAG	-0.0754
GCTGAAAC	-0.00506
AATGCTGG	-0.00919
AGACTCGC	0.136
ACGGGGCA	-0.168
ATGCACAG	0.123
AAAACAGG	-0.232
CAGTCAAC	0.216
CAGTTTTC	-0.0401
AGCCTGAG	0.0464
AATGTCAA	-0.169
AGACAACC	0.095
GGTCGGAA	-0.00317
AGGACGTA	-0.248
ACAGGTTC	-0.0185
AAGTAGGA	-0.117
CGATACCG	0.0455
CCCATCGA	0.252

Sequence	PBM E-score
GTAAGTGA	0.0868
CGATATGA	0.125
ACTTGCTA	0.126
CATTAAGA	-0.357
ACATAAAG	-0.0861
AGCAGCCC	0.189
GGGCTCTA	-0.0249
TATGCAGA	0.0775
GACCAGTA	-0.0444
CCAACTTC	-0.0147
ACCCCCAG	-0.0907
GTGAATTA	0.139
GCTTCCGA	-0.121
CTCTGTAA	-0.126
ATATGGTG	0.214
CGTTGAAC	-0.185
GGGTGGTA	0.044
AGCGATAA	-0.0952
ACAGGCCT	-0.178
CGTAACAC	0.156
CTTAGAGC	-0.0903
AGCTTCCA	-0.0631
ACAGAGGT	-0.0725
CGTGCTAC	-0.093
ACCTGGTC	-0.0526

Sequence	PBM E-score
CGTTGTTC	-0.114
CAAGTAAA	-0.173
CTGGTAGA	0.0523
CCACACGC	0.228
GACCACGC	0.148
TCTCGCCA	0.0221
ATCTGCCG	-0.0721
CGGGGTAA	-0.00758
CATTCGGA	0.147
CCATCCAA	0.0377
ACAATTTC	-0.134
CACAGAGG	-0.0112
GGACCTAC	-0.133
ACACTTCG	0.0579
CCTGGCCG	-0.0441
AAATTTCT	-0.455
CCTATGCA	-0.0709
CTCGTGAC	0.273
ACGACCAA	-0.0835
AATTTAAA	-0.144
GCTTGGAA	-0.238
AGGTAATG	-0.0593
